# According to the RNAGym collection of RNA variant scans (doi:10.1093/nar/gkz1192):
# Read counts are not given, so values of variants with three or more changes are uncertain.
# B1: CPEB3 Ribozyme (parent)
# chain: UAACAGGGGGCCACAGCAGAAGCGUUCACGUCGCAGCCCCUGUCAGAUUCUGGUGAAUCUGCGAAUUCUGCUGUAUAUCUC
# Variants of: B1
# Test: self-cleavage, relative activity (ratio to wild type); higher = more cleavage; in vitro, sequencing
# How it was run: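 Libraries of CPEB3 self-cleaving ribozyme mutants came from rounds of error-prone PCR and carried barcodes, which DNA sequencing matched to variants. In vitro transcription used T7 RNA polymerase at 37°C for 5 hours, with a further 15 min in DNase I before EDTA stopped the reaction; the ribozymes cleaved during both steps. The RNA was reverse transcribed with template switching and sequenced on Illumina. Relative activity is the cleaved/total read fraction of a variant divided by that of the unmutated ribozyme, averaged over three batches with at least 5 reads.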
row,Variant,self-cleavage
1,A20G A21G U41C,0.5
2,A20G A65G G73U,0.89
3,A20G A45G A65G U69A C81A,0.04
4,A20G C27U U51A A77U,0.06
5,A20G C37G U41A U72C U74C,0.08
6,A20G A21G A28C U74C,0.44
7,A20G A56U A57G,0.21
8,A20G A35C A56G U67A A77G,0.35
9,A20G A21G U49A U69C,0.2
10,A20G A65G U66C U74C U78C,0.1
11,A20G A28U U48C U80C,0.61
12,A20G C38U U43C,0.16
13,A20G C38U U51G,0.17
14,G19U U43C A47G U48A U80C,0.04
15,A20G A35G U41A A75G,0.23
16,A20G A21G A56G A57G U58A,0.31
17,A20G C32U U41C A57U,0.07
18,A20G A35U U78C,0.42
19,A20G A47C U69C G70A,0.17
20,A20C U72A A75G,0.33
21,A20C C38G A47G U67C G70U,0.33
22,A20C C62U A64G,0.15
23,A20G A65U U72C,0.45
24,A20G C29U U43A U58C U67A C68G U76G,0.06

row,Variant,self-cleavage
1,A20G A21G U41C U72A,0.24
2,A20G A56G G63A G70C A77U,0.18
3,A20C G24A U26G A45U C59U,0.04
4,A20G A77G U78A,1.1
5,A20G A77G U78C,0.68
6,A20C U48C U54C U67C,0.11
7,A20G A35G A75U,1.21
8,A20G A35U U41C U51C U60A A77G,0.11
9,A20G A28G G55U U66C,0.12
10,A20G A21G A35U U43C,0.07
11,A20C A45C A65G U67A U76C,0.23
12,A20C A21G A45C,0.03
13,A20G A56U C71G,0.09
14,A20G C37A U43A U48C A64U,0.06
15,A20G A45G A57G,0.4
16,A20G C38A A65U U74C,0.16
17,G19U U67A U69A,0.18
18,A20G A28G G70A,0.32
19,A20G A45U U69A A77U,0.09
20,A20G C29A U43C A47G U49A,0.05
21,A20G A21G U66C U72A,0.58
22,A20G A64U U80A,0.3
23,A20G A28G U43A U66C U67C U69A U74C,0.1
24,A20G A35U C62U A65U U69C U80C,0.09

row,Variant,self-cleavage
1,A20G A21G U41C U48C U76C,0.14
2,A20G A28G A35G C44A A57G U60A,0.04
3,A20G C38G U48C U60C A65G,0.29
4,A20G C32U U78C,0.15
5,A20G A21U A56U,0.43
6,G19U U43C U54C U69A,0.09
7,A20G A35G U49C G61A A65G U69A U78C,0.23
8,A20G A57G U60G,0.21
9,A20G A57G U58C U76A,0.45
10,A20G A21G U51C A75G,0.31
11,A20G A28U A35U A47U U49A U58C,0.18
12,A20G A28G U31A A45G G46A U80C,0.18
13,A20G A65C U72A,0.07
14,A20G A28U U51C A57G U69C U74A U78C,0.33
15,A20G A21C A77G,0.38
16,A20C G36A U67A,0.1
17,A20G C32U U72C,0.08
18,A20G A21G U54C U74C,0.53
19,A20C U48C G63U U72A,0.06
20,A20G A21G U76C U78C,0.25
21,A20G A21G U25C U26A G52A,0.06
22,A20G A21G U26A A45U,0.05
23,A20G A77U U78C,0.84
24,A20G A21C U72A,0.13

row,Variant,self-cleavage
1,A20G A35G U51C U58A A77G,0.37
2,A20C U43G U76C,0.25
3,A20G C29U C40U U54C,0.18
4,A20G C32A A45U U54C,0.15
5,A20G A21G U43A A57U U69A U80C,0.12
6,A20G A35G A47G U67C,1.28
7,A20G A35G U41C A56U U72C U80C,1.1
8,A20G C27G U31A A45G A47G A77G,0.02
9,A20G A35U U67A U72C,0.09
10,A20C A21U C37U U48C A57G U69C,0.05
11,A20G C29U U31C U41C,0.09
12,A20G A35G A57G,1.24
13,A20C A35U U41C A64U,0.1
14,A20G C37U U41C A47U U67C,0.48
15,A20G A35G U51C U69G,0.79
16,A20C U51A U78C,1.1
17,A20G A35U G42A A56U A77C,0.14
18,A20G A21G G24C A35G,0.32
19,A20G A21G U25C U60A,0.38
20,A20G A21G U48C A57G U67C,0.18
21,A20G A45G A56G U60A,0.07
22,A20G A21G C27U U31C A75G,0.21
23,A20G A35U U80C,0.62
24,A20G A28U C34A A35G,0.08

row,Variant,self-cleavage
1,A20C U26C C27U U78C,0.08
2,A20G A21U A47U A75U,0.24
3,A20C A75U A77G,0.35
4,A20G A28G U72C,0.41
5,A20G A56G U60A,0.47
6,A20G C32U A47U A57G U67A U78A,0.02
7,A20G A28G U41C A64U,0.38
8,A20G A21U U26C C29A U41A U54A A64G,0.13
9,A20G A45U A47G,0.18
10,A20G C23A U25C G30U,0.16
11,A20G A21G U25C C50A U69C,0.34
12,A20G A57G A64U U80G,0.36
13,A20G C37U U67A,0.26
14,A20G C32A U80A,0.2
15,A20G A56U U76C,0.38
16,A20C A57G U67C,0.09
17,A20G A28G U31C U48C G55A A75G,0.16
18,G19U U51A U66C,0.28
19,G19U U58C A64G,0.14
20,A20G A21U U26C U41A U43A A65G,0.09
21,A20G A35G A56G,1.17
22,A20G A45G U69C,0.3
23,A20G A47U A57U U60A,0.05
24,A20G C29A U66C,0.21

row,Variant,self-cleavage
1,A20G A21G U43C U60C,0.26
2,A20C U25C G46U A65G,0.05
3,A20G A35U U41C U43A U72G A77G U80A,0.18
4,A20G A21G A57G C71G,0.16
5,A20G A64U U69A U78C,0.48
6,A20G A45G U67C,0.56
7,A20G A64U U69C,0.19
8,A20C U49C U60C A65G U78C,0.09
9,A20G C38U U51G U72A,0.28
10,A20C C38U A56G U76C U80C,0.05
11,A20G C29U U51A,0.71
12,A20G A28G U41C G61U A64G A77G,0.17
13,A20G A28G U41A U48C,0.05
14,A20G A21G C29G U78C,0.04
15,A20G C27G U49A,0.13
16,A20G A56G U80C,0.81
17,A20G C32U U41A U43C U51A G55A,0.17
18,G19U U51A U60A,0.11
19,A20C A21U U26C C81U,0.05
20,A20G A28C A65U,0.23
21,A20G A21G U43C U69C,0.33
22,A20C U26C U48G U78A,0.11
23,A20G A45U U49A,0.28
24,A20G A21C A56G,0.26

row,Variant,self-cleavage
1,A20G A56C A65G G73A,0.18
2,A20G A35G U41C U48C U60A U78C,0.34
3,A20G A35G U43C A57G U76C,0.5
4,A20C A35G U41G A45G,0.44
5,A20G A35U A47G A64G U78C,0.44
6,A20G C34G U80A,0.09
7,A20G C32A A57G,0.06
8,G19U U49C U72C G73A,0.18
9,A20C C23U U51A,0.22
10,A20C U31C U41A U48A U74A,0.22
11,A20G A57G U78C,0.69
12,A20G A57G U78A,0.44
13,A20G A35G U49C A56G A65G,0.57
14,A20G A28G A35U A45U U54A,0.07
15,A20G A21G G46C A57U U67C U76A U80A,0.06
16,A20G A28G U31C A57G,0.38
17,A20G A21U A28G U60A G73A U78C,0.06
18,A20G A56G A64G U66C U69A U76C,0.15
19,A20G C32A U48C U54C,0.18
20,A20G C38U U51C U78C,0.29
21,A20G A21G U43A U69C,0.16
22,A20G C34U A47G U48C U51C A64G C79U,0.34
23,A20G A28G U54C U60C U72A,0.1
